# Measurements: PubChem BioAssay AID463173 (ICCB-Longwood Screening Facility, Harvard Medical School, 2010)
# Out of some 52,000 compounds screened, about 4,300 (8.3%) were called active. No stated cut-off is given here; in the data, active means survival mostly below about 52% (no sharp cut-off); inactive means mostly above about 56%. The list shows a part of the results.
# Test system: DeltatarO mutant
# Test: growth inhibition of S. aureus wild type versus tarO mutant, primary screen, teichoic acid synthesis inhibitors, RN4220, OD600 (AID 463173)
# Conditions: OD600, 18 h, active compounds read low, screened at 18.75 µg/mL (by protocol)
row,SMILES,survival
1,COc1ccc(Cl)cc1NC(=O)CN1C(=O)COc2ccc(S(=O)(=O)NC3CCCC3)cc21,inactive: 86%
2,COc1ccc(-c2cc(C(=O)Nc3c(C)nn(Cc4ccc(C)cc4)c3C)no2)cc1OC,inactive: 60%
3,Cc1ccc(-c2nnc(Nc3ccc(O)cc3)c3ccccc23)cc1S(=O)(=O)N1CCOCC1,inactive: 65%
4,CCOC(=O)c1cc(-c2ccccc2)n(-c2cccc(C(=O)Nc3ccc(OCC)cc3)c2)c1C,active: 37%
5,Cc1ccc(Nc2nn3c(=O)c4cc5c(cc4nc3s2)OCO5)cc1Cl,inactive: 59%
6,Cc1nc2nc(SCC(=O)NCc3ccccc3Cl)nn2c(C)c1Cc1ccccc1,inactive: 64%
7,Cc1ccc(NC(=O)CC(C)S(=O)(=O)c2ccc3c(c2)NC(=O)CO3)cc1Cl (centres undefined),inactive: 83%
8,CCc1ccc(NC(=O)C(CC)n2c(=O)c(C(F)(F)F)nc3ccccc32)cc1 (centres undefined),inactive: 102%
9,CCc1nc(-c2cc(S(=O)(=O)N3CCN(c4ccccc4OC)CC3)ccc2OC)no1,active: 42%
10,COc1cc(Cl)c(C)cc1Nc1ncnc2c1nc1n2CCCC1,inactive: 85%
11,CCOC(=O)Cn1c(=O)c2c(nc3n2CCN3c2ccc(CC)cc2)n(C)c1=O,inactive: 79%
12,CC(=O)Nc1ccc(NC(=O)CSc2nccn2C)cc1,inactive: 73%
13,COCCNc1sc(S(=O)(=O)c2ccc(C)cc2)nc1S(=O)(=O)c1ccc(C)cc1,inactive: 108%
14,C=CCc1c(C)[nH]c(=S)[nH]c1=S,inactive: 79%
15,COc1cc(NC(=O)CC2C(=O)N(c3cccc(C)c3)C(=O)N2Cc2ccc(F)cc2)cc(OC)c1 (centres undefined),inactive: 94%
16,CCOC(=O)c1cc2c(=O)n3ccccc3nc2n(CC(C)C)c1=NC(=O)c1c(-c2c(F)cccc2Cl)noc1C,inactive: 165%
17,CCCN(C(=O)c1noc2c1COc1ccc(C)cc1-2)c1ccc(Cl)c(Cl)c1,inactive: 105%
18,COC(=O)c1ccccc1NC(=O)c1c(NC(=O)c2ccco2)sc2c1CCC(C(C)(C)C)C2 (centres undefined),inactive: 137%
19,CN(C(=O)CSc1cn(CC(=O)N2CCOCC2)c2ccccc12)c1ccccc1,inactive: 80%
20,CCCCN(CC)CCNC(=O)Cn1cc2c(n1)-c1c(oc(C(=O)N3CCCC3)c1C)CC2,inactive: 85%
21,COc1cccc(Cn2c(=O)n(Cc3ccco3)c(=O)c3oc4ccccc4c32)c1,inactive: 66%
22,CC(=O)N1CCCc2cc(S(=O)(=O)N3CCC(C(=O)NCc4cccc(C)c4)CC3)ccc21,inactive: 75%
23,CCCOc1cccc(C(=O)N(Cc2ccc(C)o2)C2CCS(=O)(=O)C2)c1 (centres undefined),inactive: 90%

row,SMILES,survival
1,CCN(C(=O)CCn1cnc2onc(-c3ccc(F)cc3)c2c1=O)c1ccc(OC)cc1,inactive: 73%
2,CCOc1ccc(C(=O)Nc2ccc(S(=O)(=O)N3CCOCC3)cc2)cc1OCC,inactive: 72%
3,CCc1cccc(-n2nnc(-c3nc(-c4ccccc4Cl)no3)c2N)c1,inactive: 91%
4,CCN(CC)C(=O)c1sc2c(c1C)c(=O)n(Cc1ccccc1)c(=O)n2Cc1ccc(Cl)cc1,inactive: 80%
5,O=C(CCS(=O)(=O)c1nc(-c2ccc3c(c2)OCO3)cc(C(F)(F)F)n1)Nc1ccccc1F,inactive: 88%
6,COCCNC(=O)c1cc2nc3c(c(C(F)(F)F)n2n1)CCc1ccccc1-3,inactive: 86%
7,NS(=O)(=O)c1cccc(S(N)(=O)=O)c1,inactive: 75%
8,O=c1oc2ccccc2c(O)c1CN1CCCCC1,active: 25%
9,CC(C)c1ccc(NC(=O)c2cccc3c2C(=O)N(C2CCCCC2)C3)cc1,active: -10%
10,CCCc1nc2ccccc2n2c(-c3ccc(C)cc3)c3c(=O)n(C)c(=O)n(C)c3c12,inactive: 68%
11,Cc1ccc2c(c1)N(CC(=O)NCc1ccccc1Br)C(=O)c1cccnc1O2,inactive: 81%
12,CCOCCCNC(=O)C(c1ccc(C)cc1)N(Cc1cccs1)C(=O)c1ccc(NC(C)=O)cc1 (centres undefined),inactive: 179%
13,CCCc1cc(NCc2cccnc2)n2c(nc3ccccc32)c1C#N,inactive: 107%
14,CC(=O)c1cccc(NC(=O)c2c(N3CCCC3=O)c3cc(F)ccc3n2C)c1,inactive: 95%
15,COc1ccccc1NC(=O)c1c(NC(=O)c2ccco2)sc2c1CCC(C(C)(C)C)C2 (centres undefined),inactive: 75%
16,CCSc1ncc(Cl)c(C(=O)Nc2c(C(=O)c3ccc(C)c(F)c3)oc3ccccc23)n1,inactive: 108%
17,Cc1cccc(N2CCN(C(=O)c3cnn(-c4cccc(Cl)c4C)c3C3CCNCC3)CC2)c1C,inactive: 80%
18,COc1ccc2nc3sc(C(=O)N4CCCC4)c(N)c3cc2c1,inactive: 68%
19,Cc1cc(C)c(NC(=O)Cn2c(=O)n(Cc3ccco3)c(=O)c3ccc(C(=O)NC4CCCC4)cc32)c(C)c1,inactive: 123%
20,Fc1ccc(-c2cn3ccccc3n2)cc1,inactive: 74%
21,O=C(NCC(c1cccnc1)N1CCc2ccccc2C1)C(=O)Nc1ccc(Cl)cc1 (centres undefined),inactive: 51%
22,Cc1ccc(-c2noc(CSc3nnc(Cc4ccccc4)n3-c3cccc(C)c3)n2)cc1,inactive: 58%
23,Cn1nnc2c(NCCc3ccccc3)ncnc21,inactive: 89%

row,SMILES,survival
1,CN(C(=O)C1=CC(c2ccc3c(c2)OCO3)=NS(=O)(=O)N1C)c1ccccc1,inactive: 91%
2,CCc1cccc(NS(=O)(=O)c2c(C)nc3sc(CC)nn3c2=O)c1,inactive: 75%
3,COc1ccc(N2CC(NC(=O)c3cc4ccccc4o3)CC2=O)cc1OC (centres undefined),inactive: 101%
4,CCC(=O)NC(c1ccccc1OC)c1cc(Cl)c2cccnc2c1O (centres undefined),inactive: 68%
5,Cc1ccc(NC(=O)Cn2c(=O)n(CCc3ccccc3)c(=O)c3c4c(sc32)CCCC4)c(C)c1,inactive: 92%
6,CCNC(=S)NC1CC2CCC1C2 (centres undefined),inactive: 102%
7,CCOC(=O)c1cc(NC(=O)c2ccc(C)cc2)c(=O)n2c1oc1ccc(Cl)cc12,inactive: 55%
8,COc1ccc(C/C(N)=N/OC(=O)Cc2ccccc2)cc1,inactive: 78%
9,O=c1oc2ccc(Br)cc2cc1-c1csc(-c2ccccc2)n1,inactive: 101%
10,COC(=O)c1ccc(NC(=O)c2cc(=O)c3ccc(C)cc3o2)cc1,inactive: 96%
11,Cc1ccc(N2CC(NC(=O)c3ccc(S(=O)(=O)N4CCCCC4)cc3)CC2=O)cc1 (centres undefined),inactive: 81%
12,CCOc1ccc(Oc2nc(NC)nc(N3CCOCC3)n2)nn1,inactive: 99%
13,CCOC(=O)c1noc2ncnc(N3CCC(C)CC3)c12,inactive: 75%
14,COc1cc2nc(C3CCC3)n(NC(=O)C(OC(C)=O)c3ccccc3)c(=O)c2cc1OC (centres undefined),inactive: 94%
15,CC(C)N(C(=O)Cn1c(SCC(=O)N2CCOCC2)nc2ccccc21)C(C)C,inactive: 98%
16,COc1ccc(S(=O)(=O)N(Cc2ccccc2)Cc2nc3ccccc3c(=O)[nH]2)cc1,inactive: 90%
17,COc1ccc(CC(=O)NCc2nc3cccnc3n2Cc2ccc(C)cc2)cc1OC,inactive: 89%
18,Cc1cccc(Cn2cc3c(=O)n(CC(=O)Nc4ccc(C)c(F)c4)nc-3c3cc(F)ccc32)c1,inactive: 76%
19,CCCC(=O)Nc1nnc2n1CCS2,inactive: 76%
20,Cc1nc2c(c(C)nn2-c2ccccc2)c(C)c1CCC(=O)NCCc1ccccc1,inactive: 58%
21,Cn1nnc2c(NCc3ccccc3Cl)ncnc21,inactive: 112%
22,CCCCCn1c(=O)[nH]c2cc(C(=O)N3CCN(c4cccc(C)c4)C(C)C3)ccc2c1=O (centres undefined),inactive: 50%
23,CCOC(=O)/C(C#N)=N\Nc1cc(C)cc(C)c1,inactive: 103%

row,SMILES,survival
1,Cc1cccc(Oc2nc3c(c(=O)n(C)c(=O)n3C)n2C)c1,inactive: 123%
2,O=C(NCC12CC3CC(CC(C3)C1)C2)c1cc2nc(-c3ccccc3)cc(C(F)(F)F)n2n1,active: -4%
3,COc1ccc(N2CCN(C(=O)c3cc4ccc5cccnc5c4[nH]3)CC2)cc1,inactive: 74%
4,COc1ccc(-c2cc(C)nc3c(-c4ccc(OC)c(OC)c4)c(C)nn23)cc1,inactive: 63%
5,COc1cc(NC(=O)c2ccccc2)c(OC)cc1NC(=O)CN1CCCCC1,inactive: 75%
6,N#Cc1cn(CC(=O)NCc2ccccc2)c2ccccc12,inactive: 87%
7,CSc1ccc(-c2nc3ccc(C)cn3c2Nc2ccccc2C)cc1,inactive: 116%
8,Cc1cccc(-c2nnn3c2nc(NCCc2ccc(S(N)(=O)=O)cc2)c2cc(Cl)ccc23)c1,inactive: 67%
9,CS(=O)(=O)N(CC(=O)NCCc1ccccc1)c1cc(C(F)(F)F)ccc1Cl,inactive: 68%
10,COc1ccc(CN2C(=O)C(C)Oc3ccccc32)cc1 (centres undefined),inactive: 91%
11,COC(=O)c1ccc(OC)c(Cn2c(=O)n(Cc3ccccc3)c(=O)c3c2c2cc(OC)ccc2n3C)c1,inactive: 77%
12,O=C(CN1CCC(O)(c2ccccc2)CC1)NC1CCCCC1,inactive: 88%
13,CC1CCCC(C)N1C(=O)CSc1nc(N)c(-c2ccccc2)c(=O)[nH]1 (centres undefined),inactive: 88%
14,O=C1CCCc2cc(S(=O)(=O)NCC3CCC(C(=O)Nc4ccccc4F)CC3)ccc2N1 (centres undefined),inactive: 93%
15,Fc1cc(Br)ccc1Nc1c2c(nc3nc(-c4cccs4)nn13)CCCC2,active: 8%
16,CC(NC(=O)c1ccccc1NC(=O)c1nsc2ccccc12)c1ccccc1 (centres undefined),inactive: 118%
17,COc1ccc(OC)c(CCNc2ncnc3onc(-c4ccc(F)cc4)c23)c1,inactive: 91%
18,CSc1nn(Cc2ccc(Cl)cc2)c(N(C(C)=O)C(C)=O)c1S(=O)(=O)c1ccccc1,inactive: 67%
19,CCc1ccc2oc(C(=O)Nc3cccc(C(F)(F)F)c3)cc(=O)c2c1,inactive: 53%
20,Cc1ccc(NC(=O)c2cc(C)nc3c2c(C)nn3-c2cccc(Cl)c2C)c(C)c1,active: -5%
